Data on three compounds can be found in patent US11542275B2, “Substituted imidazolidin-2-one derivatives as PRMT5 inhibitors” (Aurigene Discovery Technologies Limited, priority 2018, dated 2023).

The target of the assay is PRMT5/MEP50 Complex (Homo sapiens (Human), UniProt O14744). Kind of assay: PRMT5 inhibition based on TR-FRET assay. The format is biochemical. Particulars: 32 nM PRMT5:MEP50 complex, 50 nM Histone-H4 peptide, 1 μM SAM, 90 minutes at room temperature. The source says:
Protein arginine methyltransferase 5 (PRMT5) is a type II arginine methyltransferase that catalyze mono- and symmetric demethylation on arginine residues of histone or non-histone proteins in presence of S-adenosylmethionine (AdoMet or SAM) a cofactor responsible for donating the methyl group. PRMT5 is reported to be overexpressed in several human cancers. To identify compounds that inhibit the PRMT5 and decrease its activity, a TR-FRET based assay has been established. Time-resolved fluorescence resonance energy transfer (TR-FRET) HTS assays are homogeneous proximity assays where the interaction of two dye-labeled binding partners is detected by the energy transfer between a donor and an acceptor dye, and the subsequent light emission by the acceptor dye. PRMT5 catalyzes Histone H4 peptide which is biotin tagged to the Lysine amino acid at carboxyl end, in presence of S-adenosyl-1-methionine (SAM) to methylate the peptide. The antibody specific to mono methylated H4 peptide (H4R3) with Ig conjugate binds to the methylated peptide, indirectly binding to the Europium lanthanide. SureLight Allophycocyanin-Streptavidin binds to the biotin tag of the peptide, therefore accepting the energy transferred from the Europium lanthanide. This energy transfer between Europium to SureLight Allophycocyanin is a direct measure of the activity/inhibition of the PRMT5 enzyme.
Assay buffer: 20 mM BICINE (pH 7.6), 25 mM NaCl, 2 mM DTT, 0.01% Tween-20 and 0.01% BSA.
The compound dilutions were prepared as 7.5% DMSO stock solutions in assay buffer. To 2 μL (7.5×) of test compound, 5 μL of PRMT5 enzyme prepared in assay buffer (Final concentration of 32 nM in 15 μL reaction volume) was added and allowed for 30 minutes pre-incubation time in a white polystyrene 384-well plate at room temperature. […] The plates were then read on Victor-3 with Excitation at 340 nm and Emissions collected at 615 and 665 nm in TR-FRET protocol. […]
For orientation: In TR-FRET formats the signal depends on donor and acceptor labels being close together.

What is called IC50 is the concentration that gives 50% inhibition. Higher therefore signals weaker potency in that assay.

The compound `CC(=O)N1CCC(c2ccc(CN3CCN(C[C@H](O)CN4CCc5ccccc5C4)C3=O)nc2)CC1` [Compound 33, (R)-1-((5-(1-acetylpiperidin-4-yl)pyridin-2-yl)methyl)-3-(3-(3,4-dihydroisoquinolin-2(1H)-yl)-2-hydroxypropyl)imidazolidin-2-one] registered an IC50 of 14 nM. This counts as double-digit nanomolar. In the case of `O=C(C1CC1)N1CCC(c2cnc(CN3CCN(C[C@H](O)CN4CCc5ccccc5C4)C3=O)cn2)CC1` [Compound 41, (R)-1-((5-(1-(cyclopropanecarbonyl)piperidin-4-yl)pyrazin-2-yl)methyl)-3-(3-(3,4-dihydroisoquinolin-2(1H)-yl)-2-hydroxypropyl)imidazolidin-2-one] it was 25 nM. In the case of `CC(C)Oc1cc(-c2ccc(CN3CCN(C[C@H](O)CN4CCc5ccccc5C4)C3=O)cn2)ccn1` [Compound 67, (R)-1-(3-(3,4-dihydroisoquinolin-2(1H)-yl)-2-hydroxypropyl)-3-((2′-isopropoxy-[2,4′-bipyridin]-5-yl)methyl)imidazolidin-2-one] it was 59 nM.
